# Measured values taken from PubChem BioAssay (Tox21).
# Values joined by “and” are separate entries in the source; they are usually repeats but may differ in a detail not shown here. Equal entries are not always repeated. Inconclusive means that the source gave no clear call. Such entries were picked first, then a sample of the others. For some of these results: A potency beside an inconclusive call is a rough fit, not a confirmed value. Where a structure was tested more than once in an assay, its records may differ in their call. Active and inactive are the calls of the source. Unless noted, the call rests on the fitted dose curve; in most records, active means well fitted curve in the direction sought with a large enough effect in the repeat runs; inconclusive means weak or mixed curves; inactive means no such curve, though single readings can be large; an effect the other way counts as inactive or inconclusive.
# Key:
# [1] = biological target: Progesterone receptor (Homo sapiens) (UniProt P06401); experiment: qHTS assay to identify small molecule antagonists of the progesterone receptor (PR) signaling pathway (AID 1346795; active means well fitted inhibition curve with a large enough effect in the signal ratio in the repeat runs, not every such curve was filed as active; inconclusive means weak or mixed curves; the % refers to the signal ratio; further: on the % scale 0 is the no-effect control and ±100 the full control effect); conditions: PR-UAS-bla HEK293T, beta-lactamase FRET ratio, 16 h
# Chain of UniProt P06401 (P06401 whole entry, looked up): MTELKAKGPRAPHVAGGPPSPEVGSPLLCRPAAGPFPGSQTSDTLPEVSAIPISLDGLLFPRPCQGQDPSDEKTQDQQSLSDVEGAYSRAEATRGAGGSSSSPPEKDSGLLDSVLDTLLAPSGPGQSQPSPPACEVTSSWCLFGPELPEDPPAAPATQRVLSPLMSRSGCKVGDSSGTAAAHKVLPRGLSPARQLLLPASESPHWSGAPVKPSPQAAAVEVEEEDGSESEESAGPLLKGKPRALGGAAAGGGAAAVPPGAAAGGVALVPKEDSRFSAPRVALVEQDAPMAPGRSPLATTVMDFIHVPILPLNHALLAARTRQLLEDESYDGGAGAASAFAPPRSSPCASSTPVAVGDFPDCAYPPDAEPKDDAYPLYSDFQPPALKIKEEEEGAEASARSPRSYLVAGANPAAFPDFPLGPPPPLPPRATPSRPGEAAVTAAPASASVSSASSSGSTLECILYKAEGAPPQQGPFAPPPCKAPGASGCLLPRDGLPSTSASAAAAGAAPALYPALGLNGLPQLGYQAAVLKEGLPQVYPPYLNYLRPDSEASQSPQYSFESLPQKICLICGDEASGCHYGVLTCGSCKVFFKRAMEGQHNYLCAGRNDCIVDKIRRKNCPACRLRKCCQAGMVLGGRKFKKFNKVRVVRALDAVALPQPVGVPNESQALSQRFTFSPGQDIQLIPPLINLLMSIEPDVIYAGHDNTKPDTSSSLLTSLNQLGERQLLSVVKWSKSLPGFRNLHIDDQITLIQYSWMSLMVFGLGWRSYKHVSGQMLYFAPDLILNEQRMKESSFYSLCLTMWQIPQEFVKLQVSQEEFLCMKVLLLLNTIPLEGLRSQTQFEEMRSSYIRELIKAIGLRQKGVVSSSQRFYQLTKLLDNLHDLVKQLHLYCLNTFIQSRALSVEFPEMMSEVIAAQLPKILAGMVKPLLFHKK
# In short: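 After 6 hr plating at 37C in 2% stripped-serum medium, PR-UAS-bla HEK293T cells got compounds, then 1 nM R5020. Sixteen hours later, LiveBLAzer substrate was applied for 2 hr at room temperature and fluorescence was recorded.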
# [2] = biological target: Progesterone receptor (Homo sapiens) (UniProt P06401); experiment: qHTS assay to identify small molecule agonists of the progesterone receptor (PR) signaling pathway (AID 1346784; calls by dose curve; further: nearly all actives have a fitted effect of over 30% in size; further: potency means the concentration at half of the fitted maximal effect; on activation: on the % scale 0 is the no-effect control and ±100 the full control effect); conditions: PR-UAS-bla HEK293T, beta-lactamase FRET ratio, 16 h; activation: at 92.4 µM (top of the series) unless noted
# In short: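 The screen uses PR-UAS-bla HEK 293T cells in charcoal-stripped serum (2%). Compounds are applied for 16 hr at 37C after a 6 hr pre-incubation, and reporter activity is detected with a FRET beta-lactamase substrate after 2 hr at room temperature.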
# [3] = qHTS assay to identify small molecule antagonists of the progesterone receptor (PR) signaling pathway - cell viability counter screen (AID 1346798); further: nearly all actives have a fitted effect of over 50% in size; further: potency means the concentration at half of the fitted maximal effect
# In short: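 Viability was determined by ATP-based luminescence (CellTiter-Glo) in PR-UAS-bla HEK293T cells cultured in 2% charcoal-stripped serum and incubated 16 hr with compounds under R5020 stimulation.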
# [4] = qHTS assay to identify small molecule antagonists of the TGF-beta/Smad signaling pathway - cell viability counter screen (AID 1346824); further: nearly all actives have a fitted effect of over 50% in size; further: potency means the concentration at half of the fitted maximal effect
# In short: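 SBE-bla HEK 293T cells, incubated overnight, then compound plus 0.25 ng/mL TGF-beta1 (stock added) for 5 hr at 37 C. Viability was read in the same wells by CellTiter-Glo luminescence after 30 min at room temperature.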
# [5] = qHTS assay to identify small molecule agonists of the TGF-beta/Smad signaling pathway - cell viability counter screen (AID 1346829); further: potency means the concentration at half of the fitted maximal effect; nearly all actives have a fitted effect of over 45% in size
# In short: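 After overnight seating at 37 C and 5% CO2, reporter cells got compounds for 5 hr and FRET substrate for 2 hr; cell viability then came from CellTiter-Glo luminescence.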
# [6] = qHTS assay to identify small molecule agonists of the TGF-beta/Smad signaling pathway (AID 1346859; active means well fitted activation curve with a large enough effect in the signal ratio in the repeat runs, not every such curve was filed as active; inconclusive means weak or mixed curves; the % refers to the signal ratio; further: potency means the concentration at half of the fitted maximal effect); conditions: SBE-bla HEK293T, TGF-beta/Smad beta-lactamase reporter, 5 h; activation: at 76.8 µM (top of the series)
# In short: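 Dual-wavelength fluorescence (460/530 nm emission) quantified beta-lactamase expression under the Smad binding element in HEK 293T cells following 5 hr compound treatment at 37 C.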
# [7] = qHTS assay to identify small molecule antagonists of the TGF-beta/Smad signaling pathway (AID 1346924; active means well fitted inhibition curve with a large enough effect in the signal ratio in the repeat runs, not every such curve was filed as active; inconclusive means weak or mixed curves; the % refers to the signal ratio; further: potency means the concentration at half of the fitted maximal effect); conditions: SBE-bla HEK293T, TGF-beta/Smad reporter, beta-lactamase ratio; activity, negative = inhibition: at 76.8 µM (top of the series) unless noted
# In short: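 Read-out was FRET-substrate fluorescence (405 nm excitation; 460 and 530 nm emission) after 2 h at room temperature. Before that, cells carrying a Smad-binding-element beta-lactamase reporter in HEK 293T had been stimulated 5 h at 37 C with TGF-beta1 (0.25 ng/mL addition solution) in the presence of test compound.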
# [8] = qHTS assay to identify small molecule agonists of the progesterone receptor (PR) signaling pathway - cell viability counter screen (AID 1346799; calls by dose curve; further: nearly all actives have a fitted effect of over 45% in size; further: potency means the concentration at half of the fitted maximal effect)
# In short: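 Viability was scored by ATP luminescence (CellTiter-Glo, 30 min, room temperature) in the same wells used for the reporter readout, after 16 hr compound exposure of PR-UAS-bla HEK293T cells.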
# [9] = Human pregnane X receptor (PXR) small molecule agonists, qHTS cell viability counter screen (AID 1346977); further: potency means the concentration at half of the fitted maximal effect; nearly all actives have a fitted effect of over 50% in size
# In short: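 HepG2 cells stably carrying the PXR-Luc reporter are cultured with 5% charcoal-stripped FBS and treated with compounds for 24hr. CellTiter-Fluor is added at 23hr and fluorescence is read after 1hr.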
# [10] = activity change, negative = inhibition: at 92.4 µM (top of the series) unless noted
# Tags describe the fitted curve by direction and shape or compound fluorescence and quenching.
smiles,measurement,setting,value
O=C(O)c1cccnc1,Potency,[1]; [10],inactive
O=C(Nc1ccc([N+](=O)[O-])cc1Cl)c1cc(Cl)ccc1O,activation,[2],inconclusive: -17.2%
same,Potency,[3],active: 30.6 µM
same,Potency,[4],"inconclusive: 616 nM [cytotoxic, full curve] and inconclusive: 737 nM [cytotoxic, full curve]"
same,Potency,[5],"inconclusive: 1.1 µM [cytotoxic, full curve] and inconclusive: 928 nM [cytotoxic, full curve]"
same,Potency,[6],"inconclusive: 549 nM [rising, full curve] and inconclusive: 1.85 µM [rising, full curve]"
same,Potency,[7],"inconclusive: 1.74 µM [rising, full curve] and inconclusive: 1.85 µM [rising, full curve]"
C=C(C)C(=O)OCCC[Si](OC)(OC)OC,"activity change, negative = inhibition",[1]; [10],inconclusive: 9.63%
O=CCc1ccccc1,"activity change, negative = inhibition",[1]; [10],inconclusive: -24.5%
CC(CN1c2ccccc2Sc2ccccc21)N(C)C (stereo not given),activation,[2],inconclusive: -8.26%
same,Potency,[8],active: 69.3 µM and active: 30.6 µM
same,Potency,[4],inactive
same,Potency,[6],"inconclusive: 49.5 µM [rising, partial curve, poor fit]"
same,"activity, negative = inhibition",[7],inconclusive: -21% and inconclusive: -9.03%
same,Potency,[9],"inconclusive: 29.8 µM [cytotoxic, partial curve]"
C[C@]12CC[C@@H]3c4ccc(O)cc4CC[C@H]3[C@@H]1CC[C@@H]2OC(=O)CCC1CCCC1,Potency,[2],"inconclusive: 8.63 µM [activator, full curve]"
same,"activity, negative = inhibition",[7],inconclusive: -14.9%
same,Potency,[9],"inconclusive: 61.1 µM [cytotoxic, partial curve]"
CCCCOCCOCCOC(C)=O,Potency,[1]; [10],inactive
OCC(CO)(CBr)CBr,Potency,[2],inactive
same,Potency,[8],"inconclusive: 552 nM [cytotoxic, single point]"
same,Potency,[4],inactive
O=c1ccc2ccccc2o1,"activity change, negative = inhibition",[1]; [10],inconclusive: 4.08%
O=C(c1cc(O)c(O)c(O)c1)c1ccc(O)c(O)c1O,Potency,[2],"inconclusive: 24.3 µM [falling, partial curve, poor fit]"
same,Potency,[8],inactive
same,Potency,[9],"active: 39.8 µM and active: 61.1 µM and inconclusive: 29.8 µM [cytotoxic, partial curve, poor fit]"
O=C1Cc2cc(CCN3CCN(c4nsc5ccccc45)CC3)c(Cl)cc2N1,Potency,[2],"inconclusive: 33.5 µM [activator, single point]"
same,Potency,[9],"inconclusive: 33.5 µM [cytotoxic, single point]"
O=C(Cl)c1c(Cl)c(Cl)c(C(=O)Cl)c(Cl)c1Cl,"activity change, negative = inhibition",[1]; [10],inconclusive: 0.719%
same,"activity change, negative = inhibition",[1]; at 92.4 µM (top of the series),inactive: 5.24%
On1ccccc1=S,activation,[2],inconclusive: -18.2%
same,Potency,[3],active: 0.605 µM
same,Potency,[8],active: 959 nM
same,"activity, negative = inhibition",[7],inconclusive: -6.84%
same,Potency,[9],active: 0.762 µM
C=CC(=O)OCCOCCOCCOCCOC(=O)C=C,Potency,[2],"inconclusive: 0.0015 µM [falling, full curve]"
same,Potency,[3],"inconclusive: 43.5 µM [cytotoxic, single point] and inconclusive: 68 µM [cytotoxic, single point]"
same,"activity, negative = inhibition",[7],inconclusive: 32.9% and inconclusive: 32.7%
same,Potency,[9],"inconclusive: 61.4 µM [cytotoxic, single point] and active: 54 µM"
COc1ccccc1/C=C/C=O,"activity change, negative = inhibition",[1]; [10],inconclusive: -5.47%
same,"activity change, negative = inhibition",[1]; at 92.4 µM (top of the series),inactive: 0.703%
same,Potency,[3],inactive
same,Potency,[5],"inconclusive: 31.7 µM [rising, partial curve, poor fit]"
same,"activity, negative = inhibition",[7],inconclusive: 17.5% and inconclusive: 10.2%
C=C(C)C(=O)OCCCCCCCCCCCC,"activity change, negative = inhibition",[1]; [10],inconclusive: 6.42%
same,"activity change, negative = inhibition",[1]; at 92.4 µM (top of the series),inactive: 0.539%
same,Potency,[3],"inconclusive: 61.4 µM [cytotoxic, single point]"
CC1=C(/C=C/C(C)=C/C=C/C(C)=C\C=O)C(C)(C)CCC1,Potency,[2],inactive
same,Potency,[8],inactive
same,Potency,[6],"inconclusive: 58.4 µM [rising, single point]"
CSc1ccc2c(c1)N(CCC1CCCCN1C)c1ccccc1S2 (stereo not given),Potency,[2],"inconclusive: 43.1 µM [cytotoxic, partial curve] and inconclusive: 29.8 µM [cytotoxic, partial curve]"
same,Potency,[3],active: 21.6 µM and active: 23.7 µM
same,Potency,[8],active: 27.2 µM and active: 21.1 µM
same,Potency,[5],"active: 54.7 µM and inconclusive: 26.8 µM [cytotoxic, single point]"
same,Potency,[6],"inconclusive: 61.4 µM [falling, single point]"
